The whole screen tested about 360,000 compounds, of which about 520 (0.14%) were called active. Inconclusive results, whose numbers are uncertain, are shown with a selection of clear calls. Calls follow the shape of the dose curve; as a rule, active = well fitted inhibition curve with a large enough effect; inconclusive = small, poorly fitted or top-dose-only effect; inactive = no such curve, though single readings can be large or run the other way. No potency is given beside an inconclusive call; the fits are too rough.
Biological target: Rap guanine nucleotide exchange factor 3 (Homo sapiens) (UniProt O95398)
Chain of UniProt O95398 (O95398 whole entry, looked up): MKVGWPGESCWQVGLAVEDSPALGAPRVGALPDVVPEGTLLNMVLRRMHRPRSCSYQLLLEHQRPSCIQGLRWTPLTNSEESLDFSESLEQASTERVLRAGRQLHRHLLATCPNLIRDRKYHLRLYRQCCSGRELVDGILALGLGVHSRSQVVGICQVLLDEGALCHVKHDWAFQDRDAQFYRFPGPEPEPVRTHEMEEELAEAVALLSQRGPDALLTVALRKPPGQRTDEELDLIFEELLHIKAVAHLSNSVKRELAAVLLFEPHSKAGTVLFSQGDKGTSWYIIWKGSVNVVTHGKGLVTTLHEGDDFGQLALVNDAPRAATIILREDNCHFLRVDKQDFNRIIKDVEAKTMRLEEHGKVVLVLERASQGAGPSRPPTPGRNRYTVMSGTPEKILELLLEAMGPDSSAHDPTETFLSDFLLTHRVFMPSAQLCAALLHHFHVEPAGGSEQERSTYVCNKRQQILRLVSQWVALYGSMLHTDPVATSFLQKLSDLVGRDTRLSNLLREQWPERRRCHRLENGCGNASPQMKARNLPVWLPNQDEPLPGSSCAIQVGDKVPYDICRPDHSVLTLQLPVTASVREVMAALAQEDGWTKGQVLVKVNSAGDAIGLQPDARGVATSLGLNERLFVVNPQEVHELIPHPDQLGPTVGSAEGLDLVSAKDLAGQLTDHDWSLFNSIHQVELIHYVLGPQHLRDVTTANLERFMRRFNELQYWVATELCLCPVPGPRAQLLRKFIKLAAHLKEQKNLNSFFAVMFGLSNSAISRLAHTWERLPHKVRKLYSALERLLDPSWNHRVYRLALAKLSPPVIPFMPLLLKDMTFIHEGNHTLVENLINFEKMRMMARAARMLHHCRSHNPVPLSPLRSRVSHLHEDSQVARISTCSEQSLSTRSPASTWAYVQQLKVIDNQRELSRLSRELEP
Test: qHTS for Antagonist of cAMP-regulated guanine nucleotide exchange factor 3 (EPAC1): primary screen; also: nearly all actives have a fitted effect of over 50% in size;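 as to activity change, negative = inhibition: plate controls were vehicle for no effect and positive control for full effect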
Conditions: EPAC1 GEF assay, Rap1b-BODIPY-GDP exchange fluorescence; activity change, negative = inhibition: at 115 µM (top of the series)
Potency is read from the fitted curve at half-maximal effect; tags tell the direction and shape of the fitted curve.

SMILES | Potency | activity change, negative = inhibition
Cc1cc(O)c(C2(O)C(=O)Nc3cc(Br)ccc32)cc1C (configuration not stated) | inconclusive [inhibitor, full curve] | 
OC(CSc1ccccc1)CN1CCN(c2cccc(Cl)c2)CC1 (configuration not stated) | inconclusive [inhibitor, partial curve, poor fit] | 
O=C(Nc1ccc(C(=O)N2CCOCC2)cc1)c1cccc([N+](=O)[O-])c1 | inconclusive [inhibitor, single point] | 
O=C(NC(=S)NCc1ccc(F)cc1)c1ccccc1 |  | inactive: -12.4%
Oc1ccc(C[C@H]2CNC(=S)N2CC2CCCN2C[C@H](Cc2ccccc2)N2C[C@H](Cc3ccc(O)cc3)N(CCc3ccccc3)C2=S)cc1 (some centres not stated) | inconclusive [inhibitor, single point] | 
COc1ccc2c(CC(=O)OCC(=O)N3CCc4ccccc43)coc2c1 |  | inactive: -13.3%
Cn1c(=O)c2c(nc3n2CC(COc2ccccc2)O3)n(C)c1=O (configuration not stated) |  | inactive: 6.44%
O=C(/C=C/c1cccnc1)c1ccc([N+](=O)[O-])cc1 | inconclusive [inhibitor, single point] | 
CCCCCCCCN1C(=O)[C@H](CC(=O)N2CCCC2)C[C@@]2(C(=O)OC)CC(C)(C)CC=C12 |  | inactive: -16.4%
COC(=O)c1nc(NC(=O)c2ccc(Br)cc2)n[nH]1 |  | inconclusive: -21.5% [inhibitor]
O=C(NN=Cc1ccccc1)C(Oc1ccccc1)c1ccccc1 (configuration not stated) | inconclusive [inhibitor, full curve, poor fit] | 
O=C(CC1C(=O)NCCN1Cc1c(F)cccc1Cl)NCCC1=CCCCC1 (configuration not stated) | inconclusive [inhibitor, partial curve] | 
CCOC(=O)c1c(C)[nH]c(N=Nc2cc(C(=O)O)cc(C(=O)O)c2)c1C | inconclusive [inhibitor, partial curve] | 
O=C1Nc2ccccc2NC(c2ccc3c(c2)OCO3)=C1N(Cc1ccc(F)cc1)C(=O)c1ccco1 |  | inactive: -26.5%
CCOc1cccc(CNc2ccc(O)cc2)c1OCc1ccc(Cl)cc1Cl | active: 50.1 µM | 
CN(Cc1ccon1)C(=O)CC1C(=O)NCCN1Cc1cccc(Oc2ccccc2)c1 (configuration not stated) | inconclusive [inhibitor, single point] | 
CN(C)c1ccc(/C=C2\SC(=O)N(CC(O)Cn3c4ccccc4c4ccccc43)C2=O)cc1 (configuration not stated) |  | inactive: 87.4%
O=C(c1ccc(-c2cccc(C(F)(F)F)c2)o1)N1CCCC(C(F)(F)F)C1 (configuration not stated) | inconclusive [inhibitor, partial curve, poor fit] | 
O=C(CNC(=O)c1ccccc1)OC(C(=O)Nc1cc(C(F)(F)F)ccc1Cl)c1ccccc1 (configuration not stated) | inconclusive [inhibitor, partial curve, poor fit] | 
CC(=O)N1CCc2cc(S(=O)(=O)Nc3ccc(C)cc3C)ccc21 | inconclusive [inhibitor, single point] | 
CCCCc1cc(=O)oc2cc(C)c(CN3CCCC3)c(O)c12 | inconclusive [inhibitor, single point] | 

SMILES | Potency | activity change, negative = inhibition
COc1cccc(NC(=O)c2ccccc2-c2nc(-c3ccccc3)no2)c1 | inconclusive [inhibitor, partial curve, poor fit] | 
C=CCNC(=O)C1CC(=O)N(c2ccc(OCc3ccccc3Cl)cc2)C1 (configuration not stated) | inconclusive [inhibitor, single point] | 
COc1ccccc1Oc1nc(-c2cccnc2)nc2ccccc12 | inconclusive [inhibitor, partial curve, poor fit] | 
CCCCCCCCCCS(=O)(=O)N/N=C/c1ccc(O)cc1 | inconclusive [inhibitor, partial curve] | 
CS(=O)(=O)N(CC(=O)NCCSCc1ccccc1Cl)c1ccc(F)cc1 | inconclusive [inhibitor, partial curve, poor fit] | 
Cn1c(N)c(C(=O)COC(=O)/C=C/c2ccc(Cl)c(Cl)c2)c(=O)n(C)c1=O |  | inactive: -6.33%
NS(=O)(=O)c1ccc(N2C(=O)C3CC=CCC3C2=O)cc1 (configuration not stated) | inconclusive [inhibitor, partial curve] | 
N/C(=N\OC(=O)CCC1CCCC1)c1ccncc1 | inconclusive [inhibitor, partial curve] | 
COc1ccc(S(=O)(=O)N2CCOC23CCN(S(=O)(=O)c2cccs2)CC3)cc1 |  | inactive: -4.12%
O=C1c2ccccc2C(=O)c2c1cccc2N1CCCC1 |  | inactive: -19.6%
O=S(=O)(c1cc(F)ccc1F)N1CCC2(CC1)OCCN2S(=O)(=O)c1cccs1 | inconclusive [inhibitor, partial curve] | 
Cc1cc(NC(=O)c2ccc(-c3ccccc3[N+](=O)[O-])o2)no1 | inconclusive [inhibitor, partial curve] | 
Cc1cc(C)cc(OCCCOc2cccc3cccnc23)c1 | inconclusive [inhibitor, partial curve] | 
CCOC(=O)c1cc2c(C)n(-c3ccc(OCC)cc3)c(C)c2ccc1=O |  | inactive: -4.35%
O=S(=O)(O)c1ccc(N=NNc2ccc(Br)cc2)cc1 |  | inactive: -8.27%
O=C1NCCN(Cc2ccoc2)C1CC(=O)N(Cc1ccccc1)CC1CCC1 (configuration not stated) | inconclusive [inhibitor, single point] | 
CCn1cc(C(=O)NC2CCCCCC2)c(=O)c2ccc(C)nc21 | inconclusive [inhibitor, single point] | 
CC(=O)Nc1ccc(/C(C)=N/NC(=O)CN(c2ccccc2Br)S(C)(=O)=O)cc1 | inconclusive [inhibitor, full curve, poor fit] | 
CC[C@]1(C(=O)OC)[C@H]2C(=O)N(C)C(=O)[C@H]2[C@H]2CN=C(SCc3ccc(OC)cc3)N21 | inconclusive [inhibitor, partial curve, poor fit] | 
CC(=O)c1ccc(N2CCN(S(=O)(=O)c3ccc4c(c3)CC(C)N4C(C)=O)CC2)cc1 (configuration not stated) | inconclusive [inhibitor, partial curve] | 
Cc1ccc2nc(N3C(=O)C(O)=C(C(=O)c4ccco4)C3c3cccc(O)c3)sc2c1 (configuration not stated) | inconclusive [inhibitor, partial curve, poor fit] | 
